According to the supplement of paper PMC11417369:
± gives the standard deviation of the averaged measurements. The list shows a part of the results.

The sequences below were run on PfAP2-EXP AP2 domain (GST-tagged) (assay: gcPBM binding intensity (ln(normalized median fluorescence intensity)); higher = stronger DNA binding).
Method in brief: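 Binding intensity values are the highest Masliner-normalised natural-log median intensity among replicate spots of either probe orientation. The binding step lasted 1 h in 1× PBS with 1% milk, 0.2 mg/ml BSA, 0.5% salmon testes DNA and 0.03% Triton X-100, using GST-tagged P. falciparum DNA-binding domains expressed in E. coli on an Agilent 4 × 180k array of primer-extended double-stranded 36-bp intergenic genomic probes plus negative controls. Alexa488 anti-GST antibody and a 488 nm scan detected bound protein.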
For “ATCCTTTATAAATAAGTGCATATAAAAAATAATATT [GTGCAC_site9759]”, the “gcPBM binding intensity (ln)” value was 8.52 ± 0.11.
For “TTTATTAATAAAAAGGTGCAATCAGGAAAAATTATC [GTGCAC_site9626]”, the “gcPBM binding intensity (ln)” value was 9.19 ± 0.099.
For “AATATATATATATTATGTACACATAGAAATATATTA [XGTACX_site3874]”, the “gcPBM binding intensity (ln)” value was 8.45 ± 0.39.
In the case of “TCATATTCCAAAAAAAAAAAAAAAAAAAAAAAAATA [CACACA_negctrl_site1293]”, the “gcPBM binding intensity (ln)” value is reported as 7.73 ± 0.57.
AATTATATATAAAAAGTGCAAAACGATAATTCATCA was tested, and the “gcPBM binding intensity (ln)” value was 9.16 ± 0.33.
In the case of “ATGTATTACTTAAATATATGAAACATATTACTTTTA [CACACA_negctrl_site496]”, the “gcPBM binding intensity (ln)” value is reported as 7.97 ± 0.38.
With “GTTCTTTCAAGTTATACACACCAAAAAAAAAAAAAA [CACACA_site7435]” the “gcPBM binding intensity (ln)” value was 8.38 ± 0.42.
For “AATATCATCAAACGCACACATACATAAATATATTAT [CACACA_site2174]”, the “gcPBM binding intensity (ln)” value was 8.64 ± 0.4.
With “AACGGGGCCAAGAAATATAAATAATCAAAACAAAAA [XGTACX_negctrl_site320]” the “gcPBM binding intensity (ln)” value was 8.7 ± 0.54.
“TGTGCACGCATATACACACACAAATACAATGATAAA [CACACA_site6656]” was tested, and the “gcPBM binding intensity (ln)” value was 8.65 ± 0.36.
With “TGTTATATTTGTGCGTGTACACATTTGAAAAAATAT [XGTACX_site3796]” the “gcPBM binding intensity (ln)” value was 8.8 ± 0.18.
“TTTCTTTATTTTTTTTTTTTTTTTTTTCCTTTTTTT [TGCATGCA_negctrl_site231]” was tested, and the “gcPBM binding intensity (ln)” value was 7.76 ± 0.078.
With “AAATGAATAAAATTTATTTATAAAAGAAAAATCACA [GTGCAC_negctrl_site225]” the “gcPBM binding intensity (ln)” value was 8.43 ± 0.33.
In the case of “AGTGTGTGTGCGTATAGTACATATACATATATACAC [XGTACX_site6882]”, the “gcPBM binding intensity (ln)” value is reported as 8.7 ± 0.23.
For “ATAATACAAAATACATGTACAAATATTTTTCATATT [XGTACX_site1721]”, the “gcPBM binding intensity (ln)” value was 8.48 ± 0.35.
With “TAGTACACACAAAATACATGCGGGGTTTAATATTTA [TGCATGCA_site576]” the “gcPBM binding intensity (ln)” value was 8.78 ± 0.45.
For “AATTCTTTCATATATTGTACGTATTCCCATAAAATA [XGTACX_site5923]”, the “gcPBM binding intensity (ln)” value was 9.03 ± 0.3.
In the case of “TTTAAATATTTTAACACACTCATATTTAGGTTACAA [CACACA_site5685]”, the “gcPBM binding intensity (ln)” value is reported as 8.43 ± 0.42.
“TCCATATATATTATGTGTACATATTATATATATAAA [XGTACX_site7525]” was tested, and the “gcPBM binding intensity (ln)” value was 8.36 ± 0.042.
With “TTTACATATTTATATACACACTTTTGCGTGTCTGGT [CACACA_site4750]” the “gcPBM binding intensity (ln)” value was 8.49 ± 0.43.
With “TAATCCATAAGAAGCACACACATATAAATATATTTT [CACACA_site6774]” the “gcPBM binding intensity (ln)” value was 8.53 ± 0.4.
“ATATATAAAATATATTGTACATTAACATATATATTT [XGTACX_site2055]” was tested, and the “gcPBM binding intensity (ln)” value was 8.38 ± 0.42.
In the case of “GTAATATTATATAGTTGTACTTTTTTTTTATTATAT [XGTACX_site483]”, the “gcPBM binding intensity (ln)” value is reported as 8.77 ± 0.46.
ATATATAAATAAATAGTGCATTTTAATATTTAACGT was tested, and the “gcPBM binding intensity (ln)” value was 8.73 ± 0.14.
In the case of “AAACTTGACGGACACACACACACATATATAAAAAAA [CACACA_site4577]”, the “gcPBM binding intensity (ln)” value is reported as 8.51 ± 0.38.
In the case of “AGTAAAAGAAAGCACACACACATGTATATATGTATG [CACACA_site3858]”, the “gcPBM binding intensity (ln)” value is reported as 8.51 ± 0.47.
“CAATATAAAAAACACACGCACACAAAAAAAAAAAAA [CACACA_site3521]” was tested, and the “gcPBM binding intensity (ln)” value was 8.39 ± 0.49.
With “TCTTTATATATATATATATGTGTGAATGTTAAGTAT [XGTACX_negctrl_site135]” the “gcPBM binding intensity (ln)” value was 8.74 ± 0.33.
For “ATTTTTTTTTTTTCCTTACACACATATTTCATTTTA [CACACA_site748]”, the “gcPBM binding intensity (ln)” value was 8.79 ± 0.64.
For ATATATATATATATAGTGCATAATGTTTTAATAGAT, the “gcPBM binding intensity (ln)” value was 10.1 ± 0.26.
In the case of “AAATTGTCTGCATATAGTACATAAATATATTAATAT [XGTACX_site4557]”, the “gcPBM binding intensity (ln)” value is reported as 8.69 ± 0.35.
For “CTATTAAAAAAATTATGTACACAACGTCTCTATATA [XGTACX_site4813]”, the “gcPBM binding intensity (ln)” value was 8.47 ± 0.35.
“TACATTTTTATTTTTACACACATATATATATATATA [CACACA_site1021]” was tested, and the “gcPBM binding intensity (ln)” value was 10.1 ± 0.31.
“AAGTATTATTATAAGACACACATGTATATAAGTATA [CACACA_site1479]” was tested, and the “gcPBM binding intensity (ln)” value was 8.58 ± 0.45.
For “TTAAGTATTTTACGTACACACTTATAAATGTACAGG [CACACA_site6012]”, the “gcPBM binding intensity (ln)” value was 8.51 ± 0.32.
For “TATTATTTTATGAGACATAAAAAAAAAAAAAAAAAA [CACACA_negctrl_site1534]”, the “gcPBM binding intensity (ln)” value was 8.02 ± 0.31.
In the case of “GAGTTTATTCTTTTTATACACACCTTATTTGATTAA [CACACA_site735]”, the “gcPBM binding intensity (ln)” value is reported as 8.72 ± 0.35.
For “TATAATATATTTATATGTACTTATTTATTTATATAT [XGTACX_site6519]”, the “gcPBM binding intensity (ln)” value was 8.39 ± 0.34.
For “TTGCCATTAATTTATACACACACATTTTAATTTTTT [CACACA_site8150]”, the “gcPBM binding intensity (ln)” value was 8.73 ± 0.34.
For “TTGTCATTTATAAAATGTACGTGTGTATATATTTAA [XGTACX_site5000]”, the “gcPBM binding intensity (ln)” value was 8.49 ± 0.35.
For “TCAATAGTTACTAGTACATGCAAAAATAAACCTATA [TGCATGCA_site85]”, the “gcPBM binding intensity (ln)” value was 9.12 ± 0.64.
“CAAATATATATGTTCACACATATAATTATTGTGAAA [CACACA_site4190]” was tested, and the “gcPBM binding intensity (ln)” value was 8.22 ± 0.38.
In the case of “AAGAAAATAAAATAAAAAAAAAAATAAAAAAAATAA [TGCATGCA_negctrl_site516]”, the “gcPBM binding intensity (ln)” value is reported as 7.91 ± 0.91.
For “TTATATTTATGATACACACACGTATATTCACATACA [CACACA_site6354]”, the “gcPBM binding intensity (ln)” value was 8.6 ± 0.42.
